The supplement of paper PMC3334620
The full ranking holds about 33,000 sequences; the median of “E-score (-0.5 to 0.5)” is about -0.035, and the highest 2% start at about 0.35. The list shows a part of the results.

Target: T1, Pdr3 (UniProt P33200)
T1 sequence: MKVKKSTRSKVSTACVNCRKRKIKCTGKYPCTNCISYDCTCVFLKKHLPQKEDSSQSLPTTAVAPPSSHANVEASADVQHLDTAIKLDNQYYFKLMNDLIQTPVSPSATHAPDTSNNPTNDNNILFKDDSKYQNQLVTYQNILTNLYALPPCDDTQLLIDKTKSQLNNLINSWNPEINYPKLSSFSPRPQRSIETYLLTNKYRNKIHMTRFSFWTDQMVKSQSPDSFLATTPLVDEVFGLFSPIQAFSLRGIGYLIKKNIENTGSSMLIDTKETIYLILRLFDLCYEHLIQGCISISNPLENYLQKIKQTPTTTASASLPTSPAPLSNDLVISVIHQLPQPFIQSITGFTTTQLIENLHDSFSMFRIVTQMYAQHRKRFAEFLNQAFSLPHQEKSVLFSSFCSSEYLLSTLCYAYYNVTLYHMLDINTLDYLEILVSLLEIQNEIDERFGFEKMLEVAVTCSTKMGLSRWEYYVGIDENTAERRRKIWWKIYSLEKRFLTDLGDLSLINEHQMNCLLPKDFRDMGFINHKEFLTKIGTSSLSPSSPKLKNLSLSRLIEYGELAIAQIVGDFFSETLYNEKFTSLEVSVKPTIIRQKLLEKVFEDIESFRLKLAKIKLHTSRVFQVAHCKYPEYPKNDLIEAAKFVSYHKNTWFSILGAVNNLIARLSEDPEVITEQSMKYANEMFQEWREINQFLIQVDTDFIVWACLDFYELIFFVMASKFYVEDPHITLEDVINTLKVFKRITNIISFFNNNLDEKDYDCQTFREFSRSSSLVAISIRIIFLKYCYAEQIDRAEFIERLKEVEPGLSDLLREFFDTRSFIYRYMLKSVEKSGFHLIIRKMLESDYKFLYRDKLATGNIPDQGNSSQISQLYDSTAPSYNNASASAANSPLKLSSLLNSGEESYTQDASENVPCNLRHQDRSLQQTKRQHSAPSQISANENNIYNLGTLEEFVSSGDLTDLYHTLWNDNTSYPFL
Assay: PBM E-score (8-mer binding enrichment) (E-score (-0.5 to 0.5)); higher = stronger / more preferred TF binding; most listed sequences are background and not binding sites
Details: protein concentration: 200 nM; construct: GST-full length
Procedure, shortened: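 Masliner-normalised scans of fluorescent anti-GST signal were the basis for scoring. That signal came from GST-tagged yeast transcription factors applied at about 100-200 nM to double-stranded universal all-10-mer Agilent arrays on fresh or once-stripped slides. Each ungapped eight-base word, pooled with its reverse complement, received an E-score from the Universal PBM Analysis Suite.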

Sequence | PBM E-score
ACGCACCG | 0.0557
CGTTGCGA | -0.0439
CTACTGAG | -0.101
TCCAAAGA | -0.105
CCTCAATA | -0.118
ATTACTGA | -0.207
AAGATGTG | -0.142
GGACTACC | -0.0457
ACGCCCAC | -0.0917
GGTTGTGA | 0.0715
TTAGACAA | -0.0013
GGCGTCTA | -0.144
TAGCTTAA | -0.185
ACTATGCA | -0.119
TAATATAA | 0.209
GAAGCGCC | 0.181
GCTGACTA | -0.209
GACGCAAA | 0.0344
AAGGATGC | -0.165
CCTGCTAG | -0.224
ACATCTCG | -0.111
AGGCATTC | -0.055
ATGCGGTC | 0.21
AATGAGTG | 0.0872
CTGATCGC | -0.108

Sequence | PBM E-score
AAGAATCC | 0.0141
CCATGCGA | -0.0274
ATCACTAA | 0.00382
CCCGCCCC | 0.357
AGCGGCAA | 0.101
GAGCCCCA | -0.165
AATTGAAC | -0.273
ACCCCTGG | -0.1
CCATACAG | -0.135
ACTATAGA | -0.00222
GTCACGCA | -0.0717
ACCACCGG | 0.269
ACTCACTC | -0.0487
CAGCAAGC | -0.184
CACCACTC | 0.165
CATTTGCA | -0.0953
AAGTTGAA | -0.126
CCATACTC | 0.0674
ATGTCTCG | -0.0638
AGAACCTA | -0.27
AGTTCAAG | 0.0398
ACCATCTA | -0.142
GCCTATGA | -0.016
AGCGCGCA | 0.243
AATCCCTC | -0.112

Sequence | PBM E-score
CGAGCTTC | 0.152
CCCAAGAA | -0.0373
ATAACTCG | -0.0206
GTTATAAC | 0.0825
ACCTTACT | 0.0457
TAAGGCGA | -0.115
GATGGATA | -0.0298
AATGCGAA | 0.00128
GTACGTAA | -0.296
AACAGAGT | -0.0201
GCCATAAA | -0.024
AATCCAAT | 0.033
GGTAAACC | 0.0178
GACTAGAC | -0.268
CAAACACG | 0.0474
TGCGCTAA | -0.0397
GCCGTTCC | 0.241
GAAACCAC | 0.0451
GTTACGAA | -0.00813
ACGTGCAA | -0.0369
CAGCCCGC | 0.00736
AAACAATA | 0.152
AGTCTCTC | -0.219
GTCTCGAA | -0.136
ATTGGCAG | -0.115

Sequence | PBM E-score
TATCTTGA | -0.0828
CAGCAAAG | -0.0837
ACGCTGCC | -0.044
CTTGAACA | 0.0296
CAAGAGCC | 0.0508
AAGCCGGA | 0.392
AACGTCGC | -0.0426
CACTGGGC | -0.0984
GCTAATCC | 0.111
CAAGATCG | 0.0955
CTGTGGAA | 0.0233
CTGTAAGC | -0.127
GGTGCATA | -0.00982
TTGAGAAA | -0.207
GCGGACCA | 0.366
ATGTAATA | 0.0295
TACAAGGA | 0.111
GGCTCCTA | -0.169
AAATTCTT | -0.141
CTTCACCC | 0.252
TATCTGCA | -0.0881
ACCTCCCG | 0.297
AATCCGGT | 0.294
CAGGGGAC | -0.0718
CGATGGCG | 0.165

Sequence | PBM E-score
ACCGTCCG | 0.283
AATTTTCA | -0.0884
GACACTCA | -0.0894
CCACTCTA | -0.0753
AAATATTT | -0.0497
CTGCTGGC | -0.103
TAATGCGA | -0.0735
CTTTCACC | -0.0498
ATATACCG | 0.306
CGCAGCTA | 0.0739
AGTACACC | -0.155
ACTCCACT | -0.262
CTGCCAGA | -0.151
ACAGCTTG | -0.0661
CCCGAACC | 0.257
CAAACCAG | -0.137
CCTAAGCC | -0.215
CACACGCA | -0.107
CACACCGG | 0.243
CCGGTGCG | 0.318
CAGTGGTC | -0.0578
GGTCCTGA | 0.103
GGTAACAC | 0.0536
CCTGGTAG | -0.12
CCTTATAC | -0.129

Sequence | PBM E-score
CAGTCACG | -0.0218
GCTGTGTA | -0.121
CTCTAAGC | -0.0134
ACAAAGAC | -0.128
CATAGGGA | -0.0985
CCCCCTCA | -0.444
ATGCGAGC | -0.04
ACTCTGCT | -0.0489
CCACACTC | -0.134
GCACGTAC | -0.0398
ACACTTTC | 0.0765
ATACAAAA | 0.00884
CATCAGTC | -0.0411
ACCTAGGC | 0.0314
ACGCAGTG | -0.179
ACCCCAAC | -0.0354
ACGTGGAT | -0.182
CCGAATAG | 0.203
TCCTACGA | -0.263
TTCCCGAA | 0.273
AAGCTCTC | -0.008
AGTGGGGA | 0.0488
ATATATAA | 0.136
AAATTGAC | -0.0509
CCTTTTAG | -0.291

Sequence | PBM E-score
CCCGTATA | 0.166
ATGTCTCA | -0.0576
ATATTTTG | 0.0456
ACTGTGTA | 0.0292
AGTTACTC | -0.0205
ACGCTATA | -0.211
GTCGCAAA | -0.0129
ATCCTCTC | -0.0391
GGGAGGCA | -0.0024
ACAAAGAT | -0.186
AGGCTGTA | -0.135
CGTACCCC | 0.0871
CGTTCCGA | 0.455
ACCCTACG | -0.106
AGTCATAC | -0.126
ACCGGGAT | 0.357
GCACATCC | 0.0416
CCACAACA | -0.3
ACATGGAA | 0.113
ACACCGGT | 0.14
GAGTCACA | -0.0756
CGACCAGC | 0.0968
